Laboratory results published in US20260001928A1 (CORTERIA PHARMACEUTICALS, priority 2022, published 2026).
At least one compound was matched to its structure with a doubt left. *1 amine or outer side, *2 acyl side, *3 side chain or, on linkers, in order; H or OH if unused. Where a SMILES comes first, the peptide text is derived from it. Side-chain parts run from the residue outwards. [ ]: non-standard residue; d: D form. The star is where a group is joined. C16 diacid = O=C(O)CCCCCCCCCCCCCCC(=O)*; γGlu = O=C(O)[C@H](CCC(=O)[*:2])N[*:1]; Thp = NC1(C(=O)O)CCOCC1; AEEA = NCCOCCOCC(=O)O

Key:
[1] = target: T1, CFR1R receptor (Homo sapiens, UniProt P34998); experiment: Activity at anti-target CFR1R receptor, cAMP assay in CRF1R-overexpression CHO-K1 cells; assay type: cell-based; conditions: 100% = Sauvagine at 100 nM
T1 construct: host or cells: CHO-K1 (clone 2)
T1 sequence (P34998 24-415): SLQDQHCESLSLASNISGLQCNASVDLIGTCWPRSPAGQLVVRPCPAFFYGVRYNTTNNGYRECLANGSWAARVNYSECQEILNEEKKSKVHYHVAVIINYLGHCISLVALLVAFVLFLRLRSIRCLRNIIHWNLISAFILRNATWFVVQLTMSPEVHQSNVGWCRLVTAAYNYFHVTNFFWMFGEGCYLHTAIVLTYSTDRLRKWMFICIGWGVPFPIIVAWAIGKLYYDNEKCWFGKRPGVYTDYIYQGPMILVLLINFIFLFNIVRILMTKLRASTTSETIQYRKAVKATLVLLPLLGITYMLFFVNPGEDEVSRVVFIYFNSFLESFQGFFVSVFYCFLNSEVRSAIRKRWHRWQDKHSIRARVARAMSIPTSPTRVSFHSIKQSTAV
Experimental: Assessment of activity at anti-target CFR1R receptor is done using the same procedure as the one described for the TeloHEAC cell line. The CRF1R-overexpression CHO-K1 cell line clone 2 was purchased from PerkinElmer. Cells were grown in a 10 cm dish at 37° C./5% CO2 in medium (F12 (Hams)/10% FBS/400 μg/ml G418) to near confluence. At that stage, cells were harvested, resuspended to 10 million/mL in culture medium without G418 and with 10% DMSO. 1 mL vial aliquots were slowly frozen to −80° C. in isopropanol and then transferred in liquid nitrogen for storage. These vials were used to run the experiment following the procedure reported in the previous paragraph, except for the compound used in the control well to define the 100% activation (Sauvagine at 100 nM) and the cell density (final cell density: 4000 cells/well)

[2] = target: T2, human CRF2a receptor (Homo sapiens, UniProt Q13324); experiment: Activity at human CRF2a receptor, cAMP functional assay in TeloHEAC cells; assay type: cell-based; conditions: TeloHEAC cells stably expressing human CRF2a receptor, relative to urocortin 2 (100 nM = 100%)
T2 construct: expressed in transfected cells; host or cells: TeloHEAC cells
T2 sequence (Q13324 1-411): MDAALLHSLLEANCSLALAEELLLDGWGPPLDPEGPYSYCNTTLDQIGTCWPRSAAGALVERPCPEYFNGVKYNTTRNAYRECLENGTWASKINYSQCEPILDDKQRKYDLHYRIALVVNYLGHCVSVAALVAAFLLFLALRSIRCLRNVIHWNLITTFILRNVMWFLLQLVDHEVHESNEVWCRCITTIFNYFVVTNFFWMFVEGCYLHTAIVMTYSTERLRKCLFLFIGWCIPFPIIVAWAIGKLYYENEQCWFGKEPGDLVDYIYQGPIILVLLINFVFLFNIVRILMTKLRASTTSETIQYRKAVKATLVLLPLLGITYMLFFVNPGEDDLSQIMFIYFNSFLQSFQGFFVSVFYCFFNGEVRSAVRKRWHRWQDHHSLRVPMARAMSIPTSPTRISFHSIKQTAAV
Experimental: Agonism of compounds for human corticotropin-releasing factor 2a (CRF2a receptor) was determined by a functional assay measuring cAMP modulation upon treatment of TeloHEAC cells stably expressing human CRF2a receptor. Compounds were dissolved at 0.5 mM in 100% DMSO and serially diluted (1:2) in 100% DMSO for 16 dilutions. 20 nL of each dilution was then transferred to 384-well assay plate using an acoustic droplet ejection instrument. 5 μL of compound buffer (1×HBSS; 20 mM HEPES,) were then added to each well. Prior to use, frozen cells were thawed quickly at 37° C. and washed (5 min at 900 rpm) with 20 mL cell buffer (1×HBSS; 20 mM HEPES). Cells were resuspended in cell buffer added with 2 mM IBMX and adjusted to a cell density of […]. 5 μL cells (final dell density: 10000 cells/well) were dispensed in the compound-containing 384-well assay plate and incubated for 30 minutes 37° C. The cAMP level in treated cells was determined using the Cisbio 62AM4PEC kit according to manufacturer's instruction. Finally, plates were incubated for 1 h at room temperature before measuring the fluorescence ratio between 665/620 nm. The percent activity value (E %) was calculated by setting 100 nM of urocortin 2 (UCN2) as 100%. The in vitro potency of the compounds was quantified by determining the concentrations that caused 50% activation of maximal response (EC50) relative to urocortin 2.

EC50 ([1]; listed as 3) [nM] | EC50 ([2]; listed as 3) [nM] | EC50 [1] [nM] | EC50 [2] [nM] | SMILES
> 250 | 0.16 |  |  | CC[C@H](C)[C@H](N)C(=O)N[C@H](C(=O)N[C@@H](CC(C)C)C(=O)N[C@@H](CO)C(=O)N[C@@H](CC(C)C)C(=O)N[C@@H](CC(=O)O)C(=O)N[C@@H](C(=O)N1CCC[C@H]1C(=O)N[C@H](C(=O)N[C@@H](CCCCN)C(=O)N[C@@H](CC(C)C)C(=O)N[C@@H](CCCCNC(=O)COCCOCCNC(=O)COCCOCCNC(=O)CC[C@H](NC(=O)CC[C@H](NC(=O)CCCCCCCCCCCCCCC(=O)O)C(=O)O)C(=O)O)C(=O)N[C@@H](CCC(N)=O)C(=O)N[C@H](C(=O)N[C@@H](CC(C)C)C(=O)N[C@@H](CC(C)C)C(=O)N[C@@H](CCCCN)C(=O)N[C@@H](CCC(N)=O)C(=O)N[C@@H](CCC(=O)O)C(=O)N[C@@H](CCCNC(=N)N)C(=O)N[C@@H](CCC(N)=O)C(=O)N[C@@H](CCCCN)C(=O)N[C@@H](CCCCN)C(=O)N[C@@H](CCC(N)=O)C(=O)N[C@@H](CCCNC(=N)N)C(=O)N[C@@H](CCC(=O)O)C(=O)N[C@@H](CCC(N)=O)C(=O)N[C@@H](C)C(=O)N[C@@H](CCC(=O)O)C(=O)N[C@@H](CCCCN)C(=O)N[C@@H](CC(N)=O)C(=O)N[C@@H](CCCCN)C(=O)N[C@@H](CCC(N)=O)C(=O)N[C@H](C(=O)N[C@@H](CC(C)C)C(=O)N[C@@H](CCC(=O)O)C(=O)N[C@@H](CCC(N)=O)C(=O)N[C@H](C(N)=O)C(C)C)[C@@H](C)CC)[C@@H](C)CC)[C@@H](C)CC)C(C)C)C(C)C [SEQ ID No. 146, reference compound] (H-IVLSLD[dV]PIKLK([AEEA-AEEA-γGlu-γGlu-C16 diacid])QILLKQERQKKQREQAEKNKQILEQV-NH2; N-terminus assumed)
 |  | > 250 | 0.41 | CC[C@H](C)[C@H](NC(C)=O)C(=O)N[C@H](C(=O)N[C@@H](CC(C)C)C(=O)N[C@@H](CO)C(=O)N[C@@H](CC(C)C)C(=O)N[C@@H](CC(=O)O)C(=O)N[C@@H](C(=O)N1CCC[C@H]1C(=O)N[C@H](C(=O)N[C@@H](CCCCN)C(=O)N[C@@H](CC(C)C)C(=O)N[C@@H](CCCCNC(=O)CC[C@H](NC(=O)CCCCCCCCCCCCCCC(=O)O)C(=O)O)C(=O)N[C@@H](CCCCN)C(=O)N[C@H](C(=O)N[C@@H](CC(C)C)C(=O)N[C@@H](CC(C)C)C(=O)N[C@@H](CCC(=O)O)C(=O)N[C@@H](CCC(N)=O)C(=O)N[C@@H](CCC(=O)O)C(=O)N[C@@H](CCCCN)C(=O)N[C@@H](CCC(N)=O)C(=O)N[C@@H](CCCCN)C(=O)N[C@@H](CCCCN)C(=O)N[C@@H](CCC(N)=O)C(=O)N[C@@H](CCCNC(=N)N)C(=O)N[C@@H](CCC(=O)O)C(=O)N[C@@H](CCC(N)=O)C(=O)N[C@@H](C)C(=O)N[C@@H](CCC(=O)O)C(=O)N[C@H](C(=O)N[C@@H](CC(N)=O)C(=O)NC1(C(=O)N[C@@H](CCC(N)=O)C(=O)N[C@H](C(=O)N[C@@H](CC(C)C)C(=O)N[C@@H](C)C(=O)N[C@@H](CCC(N)=O)C(=O)N[C@H](C(N)=O)C(C)C)[C@@H](C)CC)CCOCC1)[C@@H](C)O)[C@@H](C)CC)[C@@H](C)CC)C(C)C)C(C)C [compound 58] (Ac-IVLSLD[dV]PIKLK([γGlu-C16 diacid])KILLEQEKQKKQREQAETN[Thp]QILAQV-NH2)
